From article PMC10711660, “An extended Tudor domain within Vreteno interconnects Gtsf1L and Ago3 for piRNA biogenesis in Bombyx mori” (The EMBO Journal, 2023) come the findings set out here.

These are yes or no findings as the source states them, for the method shown. Binding seen in cells or lysates may run through a third protein. Some results given as binding are weak or reduced against the parent protein; the word gives no strength. Sequences can lack the tags named with a protein.

In assay [1] the target is T1, full length (FL) BmGtsf1L‐eGFP (Bombyx mori).
T1 sequence: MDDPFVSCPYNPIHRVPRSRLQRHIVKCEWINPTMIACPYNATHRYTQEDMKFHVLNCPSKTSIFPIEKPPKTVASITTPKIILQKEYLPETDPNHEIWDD
The experiment in a line: co-IP; GFP-IP on lysates of BmN4 cells co-transfected with BmGtsf1L-eGFP and HA-BmVreteno full length, truncation variants or point mutants; HA-LacZ as control; Western blot. (In general: A western blot detects proteins with antibodies after separation by electrophoresis.)

Assay [2] concerns the target T2, HA‐BmGtsf1L‐eGFP (Bombyx mori).
T2 sequence: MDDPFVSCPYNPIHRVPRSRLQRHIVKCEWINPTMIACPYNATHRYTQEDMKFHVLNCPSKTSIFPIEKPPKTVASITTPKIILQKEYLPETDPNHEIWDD
The experiment in a line: co-IP; GFP-Trap magnetic agarose or control beads, lysate of BmN4 cells stably expressing HA-BmGtsf1L-eGFP; also after dsRNA knock-down of luciferase, BmAgo3 or BmVreteno; IP-150 buffer, overnight 4°C; Western blot.

The target in assay [3] is T3, HA‐tagged BmGtsf1L (Bombyx mori).
T3 sequence: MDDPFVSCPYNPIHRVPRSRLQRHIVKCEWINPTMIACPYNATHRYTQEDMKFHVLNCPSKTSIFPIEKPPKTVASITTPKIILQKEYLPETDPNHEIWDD
Briefly: co-IP; anti-HA magnetic beads, lysate of BmN4 cells transiently transfected with HA-BmGtsf1L (with FLAG-tagged partners or alone); IP-150 buffer (150 mM KOAc, 0.1% Igepal), overnight 4°C; with or without RNase A/T1; Western blot.

B1: HA‐BmVreteno (L)‐FL (protein)
chain: MSNHSRPQRRREWDPMRDDFNEHTYDVQYADDNAGEQVQLDHTKLYIINIPRGLSEDGIRAAFSKHGKVLSARLSKNPNKRFAIVQFETASEAKLAMMKMNGSEPLNLKISIAHKTIRKTQHDNKDRNYSTSRNGHCSRDEASSISSKGWNMRNLDDVMNNDEIDEIDDMIHEDHDDNLDLELDMLTLKQLKIKEEQLMCKRRLLLRHAEKRQVAPHSSAGRSVLPDGRIVVRNNANETDSAEVEPSFAGAGSESLKTPGLERNASRQCVKCGAPADWYCSRCAITPYCSQTCQTRDWTERHKSVCHYLAPLKTAGGFEAEATSSKSVSNSTPMRSSHSPPTKQQRGEADETDNKAKNIQEPRQNYHRPSNSGPNKNIPGKNQDPRRPATSREAIEEETEERGARNPKPAEATKDKHHPMNPVTFQRRQLKSNPVVDAQPAPREQQQPAATRAPEASPTEQRESTRRTLVPDRCLIDSLSEGDVVLVSVELKASECCTKQGGYVCLSMHEKYESDYQKLCEDYVLDCEADSDEYKIITGDTFSYLSPEDGGWYRARALNTTMAALLDGSKVVYLRMNDKVKKLPAKYSGIPEFCCVLNADVEVGLNLKCSLLSKTPNGFKVTLENVETEANVGEGEITRWIPEVDYPPPVKNVPVQRSVEIPEVPRPEIKNKSRVILVDATDVQRVFVRPADTRSQKAFDNILQDVLLYGTTAEPLKEPPSKGQTVVSKYTDNLHYRALCKRTSVNKNKYLLEYIEYGNIEITQLNRLYPCPEHLSVTSLASLTSHVQLDTTVGELTPRALEYIETIKEEEMILTLSSGGDTAQSGAALVNLTLVKNNDNVNKRIEELCTPEWKKLELKGVDVIETERLMYGTALDYIELPAAPFDLQVLDEVGLDSGNISGCPTNSDYVRYVMTKLPARMREYCESEFGRQPYLPAAEELCIAQLPPSSEWHRAVVLEQILGPGGGTARVLFVDHGNVAEVPVSSLRKMLAEFVTDLPAVACQIVIEDFPKQATAEMLAKARRFMSGPDKARAAQLPVRGCDKQDVGIYAIRVPELLEAMTE
B1: the binding result in assay [1] is listed as “binds”.

B2: HA‐BmVreteno‐FL I762W (protein)
chain: MSNHSRPQRRREWDPMRDDFNEHTYDVQYADDNAGEQVQLDHTKLYIINIPRGLSEDGIRAAFSKHGKVLSARLSKNPNKRFAIVQFETASEAKLAMMKMNGSEPLNLKISIAHKTIRKTQHDNKDRNYSTSRNGHCSRDEASSISSKGWNMRNLDDVMNNDEIDEIDDMIHEDHDDNLDLELDMLTLKQLKIKEEQLMCKRRLLLRHAEKRQVAPHSSAGRSVLPDGRIVVRNNANETDSAEVEPSFAGAGSESLKTPGLERNASRQCVKCGAPADWYCSRCAITPYCSQTCQTRDWTERHKSVCHYLAPLKTAGGFEAEATSSKSVSNSTPMRSSHSPPTKQQRGEADETDNKAKNIQEPRQNYHRPSNSGPNKNIPGKNQDPRRPATSREAIEEETEERGARNPKPAEATKDKHHPMNPVTFQRRQLKSNPVVDAQPAPREQQQPAATRAPEASPTEQRESTRRTLVPDRCLIDSLSEGDVVLVSVELKASECCTKQGGYVCLSMHEKYESDYQKLCEDYVLDCEADSDEYKIITGDTFSYLSPEDGGWYRARALNTTMAALLDGSKVVYLRMNDKVKKLPAKYSGIPEFCCVLNADVEVGLNLKCSLLSKTPNGFKVTLENVETEANVGEGEITRWIPEVDYPPPVKNVPVQRSVEIPEVPRPEIKNKSRVILVDATDVQRVFVRPADTRSQKAFDNILQDVLLYGTTAEPLKEPPSKGQTVVSKYTDNLHYRALCKRTSVNKNKYLLEYIEYGNIEWTQLNRLYPCPEHLSVTSLASLTSHVQLDTTVGELTPRALEYIETIKEEEMILTLSSGGDTAQSGAALVNLTLVKNNDNVNKRIEELCTPEWKKLELKGVDVIETERLMYGTALDYIELPAAPFDLQVLDEVGLDSGNISGCPTNSDYVRYVMTKLPARMREYCESEFGRQPYLPAAEELCIAQLPPSSEWHRAVVLEQILGPGGGTARVLFVDHGNVAEVPVSSLRKMLAEFVTDLPAVACQIVIEDFPKQATAEMLAKARRFMSGPDKARAAQLPVRGCDKQDVGIYAIRVPELLEAMTE
Take B2: the binding entry in assay [1] was “binds”.

B3: HA‐BmVreteno‐FL S744D (protein)
chain: MSNHSRPQRRREWDPMRDDFNEHTYDVQYADDNAGEQVQLDHTKLYIINIPRGLSEDGIRAAFSKHGKVLSARLSKNPNKRFAIVQFETASEAKLAMMKMNGSEPLNLKISIAHKTIRKTQHDNKDRNYSTSRNGHCSRDEASSISSKGWNMRNLDDVMNNDEIDEIDDMIHEDHDDNLDLELDMLTLKQLKIKEEQLMCKRRLLLRHAEKRQVAPHSSAGRSVLPDGRIVVRNNANETDSAEVEPSFAGAGSESLKTPGLERNASRQCVKCGAPADWYCSRCAITPYCSQTCQTRDWTERHKSVCHYLAPLKTAGGFEAEATSSKSVSNSTPMRSSHSPPTKQQRGEADETDNKAKNIQEPRQNYHRPSNSGPNKNIPGKNQDPRRPATSREAIEEETEERGARNPKPAEATKDKHHPMNPVTFQRRQLKSNPVVDAQPAPREQQQPAATRAPEASPTEQRESTRRTLVPDRCLIDSLSEGDVVLVSVELKASECCTKQGGYVCLSMHEKYESDYQKLCEDYVLDCEADSDEYKIITGDTFSYLSPEDGGWYRARALNTTMAALLDGSKVVYLRMNDKVKKLPAKYSGIPEFCCVLNADVEVGLNLKCSLLSKTPNGFKVTLENVETEANVGEGEITRWIPEVDYPPPVKNVPVQRSVEIPEVPRPEIKNKSRVILVDATDVQRVFVRPADTRSQKAFDNILQDVLLYGTTAEPLKEPPSKGQTVVSKYTDNLHYRALCKRTDVNKNKYLLEYIEYGNIEITQLNRLYPCPEHLSVTSLASLTSHVQLDTTVGELTPRALEYIETIKEEEMILTLSSGGDTAQSGAALVNLTLVKNNDNVNKRIEELCTPEWKKLELKGVDVIETERLMYGTALDYIELPAAPFDLQVLDEVGLDSGNISGCPTNSDYVRYVMTKLPARMREYCESEFGRQPYLPAAEELCIAQLPPSSEWHRAVVLEQILGPGGGTARVLFVDHGNVAEVPVSSLRKMLAEFVTDLPAVACQIVIEDFPKQATAEMLAKARRFMSGPDKARAAQLPVRGCDKQDVGIYAIRVPELLEAMTE
Take B3: the binding result in assay [1] is given as “binds”.

B4: endogenous Siwi (protein, UniProt A8D8P8 1-899)
chain: MSEPRGRGRARGRAGRGGDGGGPAPRRPGEQAGPSQQSMPPGPRPQPPSGWGPQSSVPPVRAGVPTPTAQAGRASHRVTPTTHEHPGDIDVQQRMQKLELGPHSSGGGDASSVVGRGSRRGGGRVLPETISILRTRPEAVTSKKGTSGTPLDLLANYFTVETTPKWGLYQYHVDISPEEDSTGVRKALMRVHSKTLGGYLFDGTVLYTVNRLHPDPMELYSDRKTDNERMRILIKLTCEVSPGDYHYIQIFNIIIRKCFNLLKLQLMGRDYFDPEAKIDIPEFKLQIWPGYKTTINQYEDRLLLVTEIAHKVLRMDTVLQMLSEYAATKGNNYKKIFLEDVVGKIVMTDYNKRTYRVDDVAWNVSPKSTFKMRDENITYIEYYYKKYNLRIQDPGQPLLISRSKPREIRAGLPELIYLVPELCRQTGLSDEMRANFKLMRSLDVHTKIGPDKRIEKLNNFNRRFTSTPEVVEELATWSLKLSKELVKIKGRQLPPENIIQANNVKYPAGDTTEGWTRDMRSKHLLAIAQLNSWVVITPERQRRDTESFIDLIIKTGGGVGFRMRSPDLVVIRHDGPIEYANMCEEVIARKNPALILCVLARNYADRYEAIKKKCTVDRAVPTQVVCARNMSSKSAMSIATKVAIQINCKLGGSPWTVDIPLPSLMVVGYDVCHDTRSKEKSFGAFVATLDKQMTQYYSIVNAHTSGEELSSHMGFNIASAVKKFREKNGTYPARIFIYRDGVGDGQIPYVHSHEVAEIKKKLAEIYAGVEIKLAFIIVSKRINTRIFVQRGRSGENPRPGTVIDDVVTLPERYDFYLVSQNVREGTIAPTSYNVIEDTTGLNPDRIQRLTYKLTHLYFNCSSQVRVPSVCQYAHKLAFLAANSLHNQPHYSLNETLYFL
In the case of B4, in assay [2], the binding entry was “binds”.

B5: FLAG‐tagged Siwi (protein, UniProt A8D8P8 1-899)
chain: MSEPRGRGRARGRAGRGGDGGGPAPRRPGEQAGPSQQSMPPGPRPQPPSGWGPQSSVPPVRAGVPTPTAQAGRASHRVTPTTHEHPGDIDVQQRMQKLELGPHSSGGGDASSVVGRGSRRGGGRVLPETISILRTRPEAVTSKKGTSGTPLDLLANYFTVETTPKWGLYQYHVDISPEEDSTGVRKALMRVHSKTLGGYLFDGTVLYTVNRLHPDPMELYSDRKTDNERMRILIKLTCEVSPGDYHYIQIFNIIIRKCFNLLKLQLMGRDYFDPEAKIDIPEFKLQIWPGYKTTINQYEDRLLLVTEIAHKVLRMDTVLQMLSEYAATKGNNYKKIFLEDVVGKIVMTDYNKRTYRVDDVAWNVSPKSTFKMRDENITYIEYYYKKYNLRIQDPGQPLLISRSKPREIRAGLPELIYLVPELCRQTGLSDEMRANFKLMRSLDVHTKIGPDKRIEKLNNFNRRFTSTPEVVEELATWSLKLSKELVKIKGRQLPPENIIQANNVKYPAGDTTEGWTRDMRSKHLLAIAQLNSWVVITPERQRRDTESFIDLIIKTGGGVGFRMRSPDLVVIRHDGPIEYANMCEEVIARKNPALILCVLARNYADRYEAIKKKCTVDRAVPTQVVCARNMSSKSAMSIATKVAIQINCKLGGSPWTVDIPLPSLMVVGYDVCHDTRSKEKSFGAFVATLDKQMTQYYSIVNAHTSGEELSSHMGFNIASAVKKFREKNGTYPARIFIYRDGVGDGQIPYVHSHEVAEIKKKLAEIYAGVEIKLAFIIVSKRINTRIFVQRGRSGENPRPGTVIDDVVTLPERYDFYLVSQNVREGTIAPTSYNVIEDTTGLNPDRIQRLTYKLTHLYFNCSSQVRVPSVCQYAHKLAFLAANSLHNQPHYSLNETLYFL
As to B5, in assay [3], the binding result is recorded as “binds”.
